Results from PubChem BioAssay (NCI).
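Compound exposure: 48 hours, 5 concentrations, 96-well plates. GI50 is the concentration that inhibits growth by half. The concentration for full growth arrest is given as TGI.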

Tested on: NCI-H322M lung
Experiment: NCI anticancer screen, dose series, 48 h

Row | Compound | GI50 | TGI
1 | Cc1ccc(C(=O)CSc2nc3ccc(F)cc3c(=O)n2-c2ccc(Cl)cc2)cc1 | > 100 µM | > 100 µM
2 | CS(=O)(=O)Nc1cc(-c2ccc3ncnc(N4CCc5cc(F)c(Cl)cc54)c3c2)cnc1Cl | 1.12 µM | 6.92 µM
3 | CN1CCN(c2ccc(C(=O)/C=C/c3cc(Br)ccc3F)cc2)CC1 | 17.5 µM | 31.8 µM
